Source: the RNAGym collection of RNA variant scans (doi:10.1093/nar/gkz1192)
Read counts are not given, so values of variants with three or more changes are uncertain.

B1: CPEB3 Ribozyme (parent)
chain: UAACAGGGGGCCACAGCAGAAGCGUUCACGUCGCAGCCCCUGUCAGAUUCUGGUGAAUCUGCGAAUUCUGCUGUAUAUCUC

Variants of: B1
Experiment: self-cleavage, relative activity (ratio to wild type); higher = more cleavage; in vitro, sequencing
Procedure, shortened: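 Relative activity compares each variant's cleaved/total read fraction with that of the unmutated ribozyme. To get these fractions, barcoded CPEB3 ribozyme libraries from rounds of error-prone PCR were transcribed with T7 RNA polymerase for 5 hours at 37°C and then given 15 min of DNase I treatment before EDTA was added. The RNAs were reverse transcribed with template switching and sequenced on Illumina, and DNA sequencing linked barcodes to variants. A minimum of 5 reads applied, and three batches were averaged.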
In the case of AAUCAGGGGGCCACAGCAGAAGCGUUCACGUCGCGGCCCCUGUCAGUUUCUGGUGGAUCCGCGAAUUCUGCUGUACAUCUC [U1A A3U A35G A47U A56G U60C U76C], the self-cleavage is reported as 0.16.
Variant AAACGGGGGGCCACAGCAGAAGCGUUCAUGUCGCUGCCCCUGUCAGAUUCUGGUGAAUCUGCGAAUUCUGCUGUAUAUCUC [U1A A5G C29U A35U] has a self-cleavage of 0.24.
Variant AAACGGGGGGCCACAGCAGAAGCGUUCACGUCGCAGCCCCUGCCAGAUUCUGGUGAAUCCGCGGAUUAUGCUGUAUAUCUC [U1A A5G U43C U60C A64G C68A] has a self-cleavage of 0.06.
Work on AAACCGGGGGCCACAGCGGAAGCGUUCACGUCGCAGCCCCUGUCAGAUUCUGGAGAAUCUGCGAGUUCUGCUGUAUACCUC [U1A A5C A18G U54A A65G U78C] yielded a self-cleavage of 0.22.
For AAACGGGGGGCCACAGCAGAAGCGUUCUCGUCGCAGCCCCCGUCAGAUUCUGGCGAAUCUGCGAAUUCUGCUGUAUAUCUC [U1A A5G A28U U41C U54C], the self-cleavage was 0.5.
AAACGGGGGGCCACAGCUGAAGCGUUCACGUCGCAGCCCCUGUCAGAUUCUGGUGAAUGUGCGAAUUCUGCUGUAUAUCUC [U1A A5G A18U C59G] showed a self-cleavage of 0.27.
Variant AAACGGGGGGCCACAGCAGAAGCGUUCACGUCGCAGCCCCUGUCAGACUCUGGUGAAUCUGCGAAUUCUGUUGUAUAUCUC [U1A A5G U48C C71U] has a self-cleavage of 0.27.
Variant AAGCAGGGGGCCACAGCAGAAGCGACCACGUCGCAUCCCCUGUCAGAUUCAGGGGAAUCUGCGAAUUCUGCUGUAUAUCUC [U1A A3G U25A U26C G36U U51A U54G] has a self-cleavage of 0.21.
In the case of AAACGGGGGGCCACAGCAGAAGCGUUCACGUCGCAGCCCCUGUCAGAUUCUGGUGAAUCUGCGAAUUCUGCUGCAUAUCUC [U1A A5G U74C], the self-cleavage is reported as 1.02.
Work on AAACGGGGGGCCACGGCAGAAGCGUUCACGUCGCAGCCCCUGUCAGAUUCUGGUGAAUCUGCGAACUCUGCUGUAUAUCUC [U1A A5G A15G U66C] yielded a self-cleavage of 0.41.
AAACCGGGGGCCACAGCAGAAGCGUUCGCGUCGCAGCCCCUGUCAGAUUCUGGUGAAUCUGCGGAUUCUGCUGUAUAUCUC [U1A A5C A28G A64G] gave a self-cleavage of 0.63.
With AAACGGGGGGCCACAGCAGAAGCGUUCACGUCGCAGCCCCUGUCAGAUUCUGGUGAAUCCGCGAAUUCAGCUGUAUAUCUC [U1A A5G U60C U69A] the self-cleavage was 0.18.
For AAACGGGGGGCCACAGCAGAAGCGUUCACCUCGCAGCCCCUGUCAGAUUCUGGUGAGUCUGCGAAUUCUGCUGUAUAUCUC [U1A A5G G30C A57G], the self-cleavage was 0.1.
Variant AAUCAGGGGGCCACAGCAGAAGCGUUCACGUCGCAGCCCCUGUCAGAUUCUGGUGAAUCUGCGGAUUCUGCUGUACAUCUC [U1A A3U A64G U76C] has a self-cleavage of 1.02.
AAACGGGGGGCCGCAGCAGAAGCGUUCACGUCGCAGCCCCUGUCAGAUUCUGGUGGAUCUGCGAAUUCUGCCGUAUAUCUC [U1A A5G A13G A56G U72C] gave a self-cleavage of 0.84.
With AAUCAGGGGGCUACAGCAGAAGCGUUCACGUCGCAGCCCCUGUCAGAUUCUGGUGAAUCUGCGAGUUCUGCUGUAUAUCUC [U1A A3U C12U A65G] the self-cleavage was 0.84.
In the case of AAACGGGGAGCCACAGCAGAAGCGUUCACGUCGCAGCCCCUGUCAGAUCCUGGUGAAUCUGCGAAUUCUGCUGUAUAUCUC [U1A A5G G9A U49C], the self-cleavage is reported as 0.18.
For AAGCAGGGAGCCUCAGCAGAAGCGUUCUCGUCGCAGCCCCUGUCAGAUUCUGGUGAAUCUGCGAAUUCUGCUGUAUAUCUC [U1A A3G G9A A13U A28U], the self-cleavage was 0.15.
AAACGGGGGGCCACAGCGGAAGCGUUUACGUCGCAGCCCCUGUCAGAUUCCGGUGAAUGUGCGAAUUCUGCUGUAUAUCUC [U1A A5G A18G C27U U51C C59G] gave a self-cleavage of 0.17.
Variant AAACGGGGGGCCACAGCAGAAGCGUUUACGUCGCAGCCCCUGUCAGAUUCUGGUGAAUCUACGAAUUCUGCUGUAUAUCUC [U1A A5G C27U G61A] has a self-cleavage of 0.3.
For AAGCAUGGGGCCACAGCAGAAGCGUUCACGUCGCAGCCCCUGUCAGAUUCUGGUGAAUCUGCGAAUGCUGCUGUAUAUCUC [U1A A3G G6U U67G], the self-cleavage was 0.2.
For AAUCAGGGGGCCUCAGCAGAAGCGUUCACGUCGCAGCCCCUGUCGGAUUCUGGUGAAUCUGCGAUUUCUGCUGUAUAUCUC [U1A A3U A13U A45G A65U], the self-cleavage was 0.31.
In the case of AAACGGGGGGCCACAGCAGAAGCGUUCACGCCGCAGCCCCCGUCAGAUUCUGGUGAAUCUGCGAAUUCUGCAGUAUACCUC [U1A A5G U31C U41C U72A U78C], the self-cleavage is reported as 0.18.
Variant AAUAAGGGGGCCACAGCAGAAGCGUUCACGUCGCAGCCCUUGUCAGAUUCUGGUGAAUCUGCGGAUUCUGCUGUAUAUCUC [U1A A3U C4A C40U A64G] has a self-cleavage of 1.22.
Work on AAGCAGGGGGCCACAGCAGAAGCGUUCACGUCGCAGCCCCUGCCAGAUUCCGGUGAACCUGCGAAUUCUGCAGUAUGUCUC [U1A A3G U43C U51C U58C U72A A77G] yielded a self-cleavage of 0.14.
With AAGCAGGGGGCCACAGCAGAAGCGUCCACGUCGCAGCCCCUGUCAGACUCUGGUGAAUCGGCGAAUUCUGCUGUAUAUCUC [U1A A3G U26C U48C U60G] the self-cleavage was 0.43.
Work on AAGCAGGGGGCCACAGCAGAAGCGUUCACGACGCAGCCCCUGUCAGAUUCCGGUGAAUCUGCGAAUUCUGCUGAAAUUCUC [U1A A3G U31A U51C U74A U76A A77U] yielded a self-cleavage of 1.17.
In the case of AAUCAGGGGGCCACAGCAGAAGCGCUCACGUCGCAGCCCCUGGCAGAUUCCGGUGAAUCUGCGAAUUCUGCUGUAUAUCUC [U1A A3U U25C U43G U51C], the self-cleavage is reported as 0.07.
Variant AAACUGGGGGCCGCAGCAGAAGCGUUCACGCCGCAGCCCCUGUCAGAUCCUGGUGAAUCUGCGAAUUCUGCCGUAUAUCUC [U1A A5U A13G U31C U49C U72C] has a self-cleavage of 0.31.
For AAACGGGGGGCCACAGGAGAAGCGUUCACGUCGCAGCCCCUGUCAGAUUCUGGAGAAUCUGCGGAUUCUGGUAUAUAUCUC [U1A A5G C17G U54A A64G C71G G73A], the self-cleavage was 0.11.
In the case of AAUCAGGGGGCCACAGCAGAUGCGUGCACGUCGCAGCCCCGGUCAGAUUCUGGUGAAUCUGCGAGUUCUGCUGUAUAUCUC [U1A A3U A21U U26G U41G A65G], the self-cleavage is reported as 0.1.
For AAACUGGGGGCCUCAGGAGAUGCGUUCACGUCGCAGCCCCUGUCAGAUUCUGGUGAAUCUGCGGAUUCUGCUGUAUAUCUC [U1A A5U A13U C17G A21U A64G], the self-cleavage was 0.12.
Variant AAUCACGGGGCCACAGCAGAGGCGUUCACGUCGCAGCCCCCGUCAGAUUCUGGUGAAUCUGCGAAUUCUGCUGUAUAUCUC [U1A A3U G6C A21G U41C] has a self-cleavage of 0.1.
AAUCAGGGGGCCACAGCAGAAGCGUUCACGUCGCAGCCCCUGUCAGAUUCUGGUGAAUCAGCGAAUUCUGCUGUAUAUCUC [U1A A3U U60A] showed a self-cleavage of 0.65.
